# The other results are listed elsewhere or left out.
# B1: SBD-G4S3-Fc (protein)
# chain: MASIPSSASVQLDSYNYDGSTFSGKIYVKNIAYSKKVTVVYADGSDNWNNNGNIIAASFSGPISGSNYEYWTFSASVKGIKEFYIKYEVSGKTYYDNNNSANYQVSTGGGGSGGGGSGGGGSEFVPRDCGCKPCICTVPEVSSVFIFPPKPKDVLTITLTPKVTCVVVDISKDDPEVQFSWFVDDVEVHTAQTQPREEQFNSTFRSVSELPIMHQDWLNGKEFKCRVNSAAFPAPIEKTISKTKGRPKAPQVYTIPPPKEQMAKDKVSLTCMITDFFPEDITVEWQWNGQPAENYKNTQPIMDTDGSYFVYSKLNVQKSNWEAGNTFTCSVLHEGLHNHHTEKSLSHSPGAA
# Key:
# Assay in all cases: glycan array binding signal (z-score within array); higher = stronger binding
# Conditions in all cases: glycan notation: IUPAC condensed, linker removed
# Kdn(a2-3)Gal(b1-4)Glc = molecular target: Kdn(a2-3)Gal(b1-4)Glc
# How it was run: (§1)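 Negative Z-scores can be read as non-binding. The Z-score is calculated within each array and then averaged across arrays of one protein sequence at different concentrations or buffers and across linkers. Arrays, 3228 in all, were curated from the Consortium for Functional Glycomics database and kept only where the protein sequence was available.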
# Kdn(a2-3)Gal(b1-4)GlcNAc = molecular target: Kdn(a2-3)Gal(b1-4)GlcNAc
# How it was run: as §1
# [1] = molecular target: Kdn(a2-3)Gal(b1-4)[Fuc(a1-3)]GlcNAc
# How it was run: as §1
# Kdn(a2-6)Gal(b1-4)GlcNAc = molecular target: Kdn(a2-6)Gal(b1-4)GlcNAc
# How it was run: as §1
# [2] = molecular target: Man(a1-2)Man(a1-2)Man(a1-3)Man
# How it was run: as §1
# [3] = molecular target: Man(a1-2)Man(a1-2)Man(a1-6)[Man(a1-3)]Man
# How it was run: as §1
# Man(a1-2)Man(a1-3)Man = molecular target: Man(a1-2)Man(a1-3)Man
# How it was run: as §1
# [4] = molecular target: Man(a1-2)Man(a1-3)[Man(a1-2)Man(a1-6)]Man
# How it was run: as §1
# [5] = molecular target: Man(a1-2)Man(a1-3)[Man(a1-2)Man(a1-6)]Man(a1-6)[Man(a1-2)Man(a1-2)Man(a1-3)]Man
# How it was run: as §1
# [6] = molecular target: Man(a1-2)Man(a1-3)[Man(a1-2)Man(a1-6)]Man(a1-6)[Man(a1-2)Man(a1-2)Man(a1-3)]Man(b1-4)GlcNAc(b1-4)GlcNAc
# How it was run: as §1
# [7] = molecular target: Man(a1-2)Man(a1-3)[Man(a1-6)]Man(a1-6)[Man(a1-2)Man(a1-3)]Man(b1-4)GlcNAc(b1-4)GlcNAc
# How it was run: as §1
# [8] = molecular target: Man(a1-2)Man(a1-6)[Man(a1-3)]Man(a1-6)[Man(a1-2)Man(a1-2)Man(a1-3)]Man
# How it was run: as §1
# [9] = molecular target: Man(a1-2)Man(a1-6)[Man(a1-3)]Man(a1-6)[Man(a1-2)Man(a1-2)Man(a1-3)]Man(b1-4)GlcNAc(b1-4)GlcNAc
# How it was run: as §1
# Man(a1-3)[Man(a1-6)]Man = molecular target: Man(a1-3)[Man(a1-6)]Man
# How it was run: as §1
# [10] = molecular target: Man(a1-3)[Man(a1-6)]Man(a1-6)[Man(a1-2)Man(a1-3)]Man(b1-4)GlcNAc(b1-4)GlcNAc
# How it was run: as §1
# [11] = molecular target: Man(a1-3)[Man(a1-6)]Man(a1-6)[Man(a1-3)]Man
# How it was run: as §1
# [12] = molecular target: Man(a1-3)[Man(a1-6)]Man(a1-6)[Man(a1-3)]Man(b1-4)GlcNAc(b1-4)GlcNAc
# How it was run: as §1
# [13] = molecular target: Man(a1-3)[Man(a1-6)]Man(b1-4)GlcNAc(b1-4)GlcNAc
# How it was run: as §1
# [14] = molecular target: Man(a1-3)[Man(a1-6)]Man(b1-4)GlcNAc(b1-4)[Fuc(a1-6)]GlcNAc
# How it was run: as §1
# Man(a1-6)Man = molecular target: Man(a1-6)Man
# How it was run: as §1
# Man(b1-4)GlcNAc = molecular target: Man(b1-4)GlcNAc
# How it was run: as §1
# MurNAc(b1-4)GlcNAc = molecular target: MurNAc(b1-4)GlcNAc
# How it was run: as §1
# Neu5Ac(a2-3)Gal = molecular target: Neu5Ac(a2-3)Gal
# How it was run: as §1
# [15] = molecular target: Neu5Ac(a2-3)Gal(b1-3)GalNAc
# How it was run: as §1
# [16] = molecular target: Neu5Ac(a2-3)Gal(b1-3)GalNAc(b1-3)Gal(a1-4)Gal(b1-4)Glc
# How it was run: as §1
# [17] = molecular target: Neu5Ac(a2-3)Gal(b1-3)GalNAc(b1-4)[Neu5Ac(a2-3)]Gal(b1-4)Glc
# How it was run: as §1
# [18] = molecular target: Neu5Ac(a2-3)Gal(b1-3)GalNAc(b1-4)[Neu5Ac(a2-8)Neu5Ac(a2-3)]Gal(b1-4)Glc
# How it was run: as §1
# [19] = molecular target: Neu5Ac(a2-3)Gal(b1-3)GalNAc6S
# How it was run: as §1
# [20] = molecular target: Neu5Ac(a2-3)Gal(b1-3)GlcNAc
# How it was run: as §1
# [21] = molecular target: Neu5Ac(a2-3)Gal(b1-3)GlcNAc(b1-2)Man
# How it was run: as §1
# [22] = molecular target: Neu5Ac(a2-3)Gal(b1-3)GlcNAc(b1-2)Man(a1-3)[GlcNAc(b1-4)][Neu5Ac(a2-3)Gal(b1-3)GlcNAc(b1-2)Man(a1-6)]Man(b1-4)GlcNAc(b1-4)GlcNAc
# How it was run: as §1
# [23] = molecular target: Neu5Ac(a2-3)Gal(b1-3)GlcNAc(b1-2)Man(a1-3)[Neu5Ac(a2-3)Gal(b1-3)GlcNAc(b1-2)Man(a1-6)]Man(b1-4)GlcNAc(b1-4)GlcNAc
# How it was run: as §1
# [24] = molecular target: Neu5Ac(a2-3)Gal(b1-3)GlcNAc(b1-3)Gal(b1-3)GlcNAc
# How it was run: as §1
# [25] = molecular target: Neu5Ac(a2-3)Gal(b1-3)GlcNAc(b1-3)Gal(b1-4)GlcNAc
# How it was run: as §1
# [26] = molecular target: Neu5Ac(a2-3)Gal(b1-3)GlcNAc(b1-3)GalNAc
# How it was run: as §1
# [27] = molecular target: Neu5Ac(a2-3)Gal(b1-3)GlcNAc(b1-4)Gal(b1-4)Glc
# How it was run: as §1
# [28] = molecular target: Neu5Ac(a2-3)Gal(b1-3)GlcNAc(b1-6)GalNAc
# How it was run: as §1
# [29] = molecular target: Neu5Ac(a2-3)Gal(b1-3)GlcNAc6S
# How it was run: as §1
binder,measurement,setting,value
B1,glycan array binding signal (z-score),Kdn(a2-3)Gal(b1-4)Glc,0.095
same,glycan array binding signal (z-score),Kdn(a2-3)Gal(b1-4)GlcNAc,-0.256
same,glycan array binding signal (z-score),[1],0.004
same,glycan array binding signal (z-score),Kdn(a2-6)Gal(b1-4)GlcNAc,0.204
same,glycan array binding signal (z-score),[2],-0.438
same,glycan array binding signal (z-score),[3],-0.048
same,glycan array binding signal (z-score),Man(a1-2)Man(a1-3)Man,-0.16
same,glycan array binding signal (z-score),[4],-0.139
same,glycan array binding signal (z-score),[5],-0.272
same,glycan array binding signal (z-score),[6],-0.404
same,glycan array binding signal (z-score),[7],-0.329
same,glycan array binding signal (z-score),[8],-0.291
same,glycan array binding signal (z-score),[9],-0.386
same,glycan array binding signal (z-score),Man(a1-3)[Man(a1-6)]Man,-0.031
same,glycan array binding signal (z-score),[10],-0.1
same,glycan array binding signal (z-score),[11],0.058
same,glycan array binding signal (z-score),[12],-0.295
same,glycan array binding signal (z-score),[13],-0.314
same,glycan array binding signal (z-score),[14],-0.118
same,glycan array binding signal (z-score),Man(a1-6)Man,-0.195
same,glycan array binding signal (z-score),Man(b1-4)GlcNAc,-0.231
same,glycan array binding signal (z-score),MurNAc(b1-4)GlcNAc,-0.28
same,glycan array binding signal (z-score),Neu5Ac(a2-3)Gal,-0.327
same,glycan array binding signal (z-score),[15],-0.124
same,glycan array binding signal (z-score),[16],0.378
same,glycan array binding signal (z-score),[17],-0.175
same,glycan array binding signal (z-score),[18],-0.023
same,glycan array binding signal (z-score),[19],-0.106
same,glycan array binding signal (z-score),[20],-0.188
same,glycan array binding signal (z-score),[21],-0.31
same,glycan array binding signal (z-score),[22],0.341
same,glycan array binding signal (z-score),[23],0.147
same,glycan array binding signal (z-score),[24],-0.143
same,glycan array binding signal (z-score),[25],-0.472
same,glycan array binding signal (z-score),[26],-0.104
same,glycan array binding signal (z-score),[27],-0.403
same,glycan array binding signal (z-score),[28],-0.367
same,glycan array binding signal (z-score),[29],-0.298

# — the supplement of paper PMC8728848
